Assay results from PubChem BioAssay AID602310 (National Center for Advancing Translational Sciences (NCATS), 2012).
Among all 410,000 compounds or so, about 310 (0.076%) were called active. Inconclusive means that the source gave no clear call. Such entries were picked first, then a sample of the others. Calls come from the whole dose curve; as a rule, active = well fitted curve in the direction sought with a large enough effect; inconclusive = small, poorly fitted or top-dose-only effect; inactive = flat fitted curve, though single readings scatter. Where the call is inconclusive, the potency comes from a doubtful curve fit.

Biological target: DNA dC->dU-editing enzyme APOBEC-3G (Homo sapiens) (UniProt Q9HC16)
Sequence of UniProt Q9HC16 (Q9HC16 whole entry, looked up): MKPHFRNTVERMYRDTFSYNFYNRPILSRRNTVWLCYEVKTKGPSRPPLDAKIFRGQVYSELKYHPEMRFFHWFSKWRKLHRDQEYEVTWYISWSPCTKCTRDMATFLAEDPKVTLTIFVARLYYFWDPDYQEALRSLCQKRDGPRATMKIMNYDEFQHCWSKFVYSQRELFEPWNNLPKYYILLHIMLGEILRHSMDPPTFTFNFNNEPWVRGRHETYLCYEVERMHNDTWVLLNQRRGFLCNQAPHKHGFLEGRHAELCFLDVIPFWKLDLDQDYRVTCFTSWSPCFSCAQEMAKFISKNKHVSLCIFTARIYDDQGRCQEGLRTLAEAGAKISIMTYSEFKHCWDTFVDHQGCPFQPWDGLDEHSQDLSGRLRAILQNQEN
Assay: qHTS for Inhibitors of Vif-A3G Interactions: qHTS; note: nearly all actives have a fitted effect of over 60% in size;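 for activity, negative = active: hits raise eYFP signal because A3G escapes Vif-driven loss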
Details: HeLa A3G-eYFP + Vif (tagged APOBEC3G with the HIV-1 protein that degrades it), YFP fluorescence, overnight; series mostly up to 46.1 µM; activity, negative = active: at the top concentration
In short: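 HeLa cells stably expressing Vif and C-terminally eYFP-tagged A3G, seeded overnight at 37 deg C, then exposed to compound by pintool overnight at 37 deg C. Rise in yellow fluorescence (Ex 488/Em 500-530, Acumen) marks blocked Vif-driven A3G degradation.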
% is set by controls: 0 for no effect and ±100 for the full control effect; potency is the fitted concentration of half-maximal effect; tags give direction and shape of the fitted curve.

Q: How did the Potency turn out when O=C(CCl)Nc1cc(S(=O)(=O)N2CCCCCC2)ccc1Cl was run?
A: inconclusive: 14.1 µM [inhibitor, partial curve, poor fit]

Q: Which Potency does the source give for Cc1cccc(-n2c(C)cc(/C=C3\NC(=O)NC3=O)c2C)c1 here?
A: inconclusive: 35.5 µM [inhibitor, single point]

Q: S=C1NC[C@H](c2ccccc2)N1CCCCC1CCCCC1 was tested. Which “activity, negative = active” value did it give?
A: inactive: -1.65%

Q: Which Potency does the source give for Cn1cc(/C=C2\SC(=S)N(NC(=O)c3ccccc3Cl)C2=O)c2ccccc21 here?
A: inconclusive: 35.5 µM [inhibitor, single point]

Q: With Cc1cc(C(=O)NN=C2CCCC2)c2ccccc2n1 as the molecule, how does the Potency read?
A: inconclusive: 15.8 µM [inhibitor, single point]

Q: O=C1NC(Cc2c[nH]c3ccccc23)C(=O)N1Cc1ccccc1 (stereo not drawn) was tested. Which “activity, negative = active” value did it give?
A: inactive: -0.036%

Q: Which Potency does the source give for COc1ccc(Br)cc1/C=C/C(=O)c1ccc(NC(C)=O)cc1 here?
A: inconclusive: 10 µM [inhibitor, partial curve]

Q: For NC(=S)N/N=C/c1cccc(O)c1O, which “activity, negative = active” value is on record?
A: inactive: -23.8%

Q: For OC(c1cc(-c2cccc(Cl)c2)nc2ccccc12)C1CCCCN1 (stereo not drawn), which Potency is on record?
A: inconclusive: 31.6 µM [inhibitor, partial curve, poor fit]

Q: Which “activity, negative = active” value does the source give for COc1ccc(-c2cc(=O)oc3c4c(ccc23)OCN(Cc2ccccc2)C4)cc1 here?
A: inactive: 2.28%

Q: Cc1ccc(C)c(C(=O)NC(C)CCc2ccccc2)c1 (stereo not drawn) was tested. Which “activity, negative = active” value did it give?
A: inactive: 1.98%

Q: For Cc1nn(-c2ccc(F)cc2)c(Cl)c1/C=C1\C(=O)Nc2ccccc21, which Potency is on record?
A: inconclusive: 3.55 µM [inhibitor, full curve]

Q: With COc1cccc2sc(Nc3nc(-c4ccncc4)cs3)nc12 as the molecule, how does the Potency read?
A: inconclusive: 1.12 µM [inhibitor, full curve, poor fit]

Q: For Cc1ccc2c(N)c(C(=O)c3ccccc3)sc2n1, which Potency is on record?
A: inconclusive: 35.5 µM [inhibitor, single point]

Q: With CCCCN1C(=O)C(=Nc2cccc3cnccc23)c2ccccc21 as the molecule, how does the “activity, negative = active” value read?
A: inactive: -7.54%

Q: How did the Potency turn out when COc1cc(C(=O)c2ccc3c(c2)OCO3)cc(OC)c1OC was run?
A: inconclusive: 6.31 µM [inhibitor, partial curve]

Q: How did the Potency turn out when COC(=O)Cn1c(=O)c2c(n(Cc3ccccc3)c1=O)N/C(=C/c1ccc(Br)cc1)C2=O was run?
A: inconclusive: 25.1 µM [inhibitor, single point]

Q: Which Potency does the source give for COc1cc(CNc2ccc(N3CCCC3)cc2)cc(Cl)c1OC here?
A: inconclusive: 11.2 µM [inhibitor, partial curve, poor fit]

Q: With Nc1nc(Nc2cccc(C(F)(F)F)c2)nc(C(F)(F)F)n1 as the molecule, how does the Potency read?
A: inconclusive: 31.6 µM [inhibitor, single point]

Q: How did the Potency turn out when COc1ccc(-c2cc(C(=O)N/N=C/c3cccnc3)c3ccccc3n2)cc1 was run?
A: inconclusive: 20 µM [inhibitor, single point]

Q: CCSc1nccc(-c2nn(-c3ccc(C)cc3)ccc2=O)n1 was tested. Which Potency did it give?
A: inconclusive: 7.08 µM [inhibitor, partial curve]

Q: With COc1ccc(NC(=O)N2c3ccc(OC)cc3C(C)=CC2(C)C)cc1 as the molecule, how does the “activity, negative = active” value read?
A: inactive: -6.96%

Q: COc1cccc(NC(=O)CSc2nc3c(sc4ccccc43)c(=O)n2CCCN2CCCC2)c1 was tested. Which Potency did it give?
A: inconclusive: 31.6 µM [inhibitor, partial curve, poor fit]

Q: How did the Potency turn out when CCc1nc2c(OCCC3CCCCC3)cccn2c1N(C)C(=O)c1ccccc1F was run?
A: inconclusive: 17.8 µM [inhibitor, single point]

Q: Which “activity, negative = active” value does the source give for COc1cccc(C(=O)N2CCN(C(=O)c3cccs3)CC2)c1OC here?
A: inactive: -0.469%

Q: CCn1c(O)c(/C=N/N=C/c2ccccc2)c2ccc(C3=NNC(=O)CC3)cc21 was tested. Which Potency did it give?
A: inconclusive: 35.5 µM [inhibitor, single point]

Q: For Cc1ccc(-n2nc(C)c3c(-c4cccs4)c(C#N)c(N)nc32)cc1, which Potency is on record?
A: inconclusive: 17.8 µM [inhibitor, single point]

Q: With CCc1ccc(NS(=O)(=O)c2cc(OC)ccc2OC)cc1 as the molecule, how does the Potency read?
A: inconclusive: 12.6 µM [inhibitor, single point]

Q: Which “activity, negative = active” value does the source give for O=C(c1ccccc1)c1nn(-c2ccccc2)c(=O)cc1-c1ccccc1 here?
A: inactive: 1.14%

Q: With COc1ccc([C@H]2CC(=O)C=C(c3ccc(OC)cc3OC)C2)cc1 as the molecule, how does the Potency read?
A: inconclusive: 6.31 µM [inhibitor, single point]

Q: Which “activity, negative = active” value does the source give for COc1ccc(C(=O)n2nnc3ccccc32)cc1Br here?
A: inactive: 0.451%

Q: How did the Potency turn out when COc1cc(C2NC(=O)NC(C)=C2C(=O)OC2CCCCC2)cc(Cl)c1O (stereo not drawn) was run?
A: inconclusive: 35.5 µM [inhibitor, single point]

Q: Which Potency does the source give for Cc1cc(C)c2c(c1)cc(C)c1nnc(SCC(=O)Nc3cc(C)on3)n12 here?
A: inconclusive: 7.94 µM [inhibitor, partial curve, poor fit]

Q: For Oc1cc(-c2cccnc2)cc2cccnc12, which Potency is on record?
A: inconclusive: 35.5 µM [inhibitor, single point]

Q: For COc1ccc(S(=O)(=O)Nc2ccc(O)c3ccccc23)cc1, which Potency is on record?
A: inconclusive: 12.6 µM [inhibitor, partial curve]

Q: With O=C(Nc1ccc2nc3n(c(=O)c2c1)CCCCC3)c1c(F)ccc([N+](=O)[O-])c1F as the molecule, how does the Potency read?
A: inconclusive: 2.82 µM [inhibitor, partial curve, poor fit]

Q: Which Potency does the source give for CCOc1ccc2nc(C)cc(Nc3cccc([N+](=O)[O-])c3)c2c1 here?
A: inconclusive: 17.8 µM [inhibitor, single point]

Q: Cc1ccc(NC(=O)Cn2c(=O)c3cccn3c3ccccc32)c(Cl)c1 was tested. Which Potency did it give?
A: inconclusive: 35.5 µM [inhibitor, single point]

Q: Which Potency does the source give for N#CCC(=O)N/N=C\c1ccccc1OC/C=C/c1ccccc1 here?
A: inconclusive: 28.2 µM [inhibitor, single point]

Q: Cc1cc(-c2cc(C)c(N)cc2C)c(C)cc1N was tested. Which Potency did it give?
A: inconclusive: 31.6 µM [inhibitor, single point]

Q: How did the Potency turn out when COc1cc(C(=O)N(Cc2cccnc2)c2nc3cc(C)c(C)cc3s2)cc(OC)c1OC was run?
A: inconclusive: 5.01 µM [inhibitor, partial curve]

Q: How did the “activity, negative = active” value turn out when CCCCN(CCCC)CC1OCc2ccccc2CO1 was run?
A: inactive: 2.41%

Q: Which “activity, negative = active” value does the source give for COC(=O)C1=C(O)/C(=C\c2ccc(CNS(=O)(=O)c3ccc(Cl)cc3)o2)N=C1C here?
A: inactive: -1.44%

Q: With O=C(NC(c1ccc(-c2ccccc2)cc1)c1cnccn1)C1CCN(Cc2ccc3c(c2)OCO3)CC1 (stereo not drawn) as the molecule, how does the Potency read?
A: inconclusive: 31.6 µM [inhibitor, single point]

Q: How did the Potency turn out when N#Cc1c(C(F)(F)F)cc(-c2cccs2)nc1SCC(=O)Nc1cccc(C(F)(F)F)c1 was run?
A: inconclusive: 20 µM [inhibitor, single point]

Q: For CCCCCCc1cc2cc(-c3nnc(-c4ccccc4O)o3)c(=O)oc2cc1O, which Potency is on record?
A: active: 3.16 µM

Q: How did the Potency turn out when O=C(N/N=C/c1ccccn1)c1cc(-c2ccncc2)nc2ccccc12 was run?
A: inconclusive: 3.16 µM [inhibitor, single point]

Q: COc1ccc(F)cc1S(=O)(=O)n1nnc2ccccc21 was tested. Which Potency did it give?
A: inconclusive: 11.2 µM [inhibitor, single point]

Q: How did the Potency turn out when COc1ccc(/C=C\c2nccc3c2[nH]c2ccccc23)cc1 was run?
A: inconclusive: 12.6 µM [inhibitor, single point]

Q: Which Potency does the source give for O=C(/C=C\c1ccco1)Nc1cc([N+](=O)[O-])ccc1F here?
A: inconclusive: 0.562 µM [inhibitor, full curve, poor fit]

Q: Which Potency does the source give for CO/N=C\CC(=O)Nc1ccc(Cl)c(Cl)c1 here?
A: inconclusive: 7.08 µM [inhibitor, partial curve, poor fit]

Q: NNc1nc2c(-c3cccc(C(F)(F)F)c3)nnn2c2ccccc12 was tested. Which Potency did it give?
A: inconclusive: 35.5 µM [inhibitor, single point]

Q: With N#CCSc1ccccc1NC(=O)CN1C(=O)C2CC=CCC2C1=O (stereo not drawn) as the molecule, how does the Potency read?
A: inconclusive: 15.8 µM [inhibitor, partial curve, poor fit]

Q: With O=C(CCC1N=C2c3ccccc3N=C(SCC(=O)Nc3ccc(F)cc3)N2C1=O)NCc1cccs1 (stereo not drawn) as the molecule, how does the Potency read?
A: inconclusive: 12.6 µM [inhibitor, partial curve]

Q: Cc1cc(SCc2ccc(Cl)cc2Cl)nc(=O)[nH]1 was tested. Which Potency did it give?
A: inconclusive: 7.08 µM [inhibitor, partial curve, poor fit]

Q: With CCN1CCN(CCCNC(=O)Cn2c(-c3cccs3)cc3cc(F)ccc32)CC1 as the molecule, how does the “activity, negative = active” value read?
A: inactive: 5.52%

Q: How did the Potency turn out when Cn1c(=O)c2cc(NC(=O)NCc3ccccc3)ccc2n1C/C=C/c1ccccc1 was run?
A: inconclusive: 7.08 µM [inhibitor, full curve]

Q: With CCOC(=O)c1[nH]c(C)c(C(=O)c2cc(F)ccc2F)c1C as the molecule, how does the Potency read?
A: inconclusive: 0.562 µM [inhibitor, full curve, poor fit]

Q: For CC(C)(C)/C(O)=C/c1nc2ccccc2oc1=O, which “activity, negative = active” value is on record?
A: inactive: -8.39%

Q: How did the Potency turn out when CCCS(=O)(=O)c1nnnn1-c1cccc(OC)c1 was run?
A: inconclusive: 25.1 µM [inhibitor, single point]

Q: Which “activity, negative = active” value does the source give for Cc1[nH]c(=O)nc(SCc2cccc(Cl)c2)c1C#N here?
A: inactive: -11.2%

Q: With COc1cc(/C=C2\SC(N3CCc4ccccc4C3)=NC2=O)cc(OC)c1OC as the molecule, how does the “activity, negative = active” value read?
A: inactive: -0.4%

Q: Which Potency does the source give for COC(=O)C(=Cc1ccccc1[N+](=O)[O-])C(=O)OC here?
A: inconclusive: 8.91 µM [inhibitor, partial curve, poor fit]

Q: With CCOc1ccc2nc(SCC(=O)NNC(=O)c3ccco3)c(C)cc2c1 as the molecule, how does the “activity, negative = active” value read?
A: inactive: 2.83%

Q: Which “activity, negative = active” value does the source give for COC(=O)[C@@]1(Cc2ccc(OC)cc2)[C@H]2c3cc(C(=O)N4CCCC4)n(CCn4cc([N+](=O)[O-])nc4C)c3C[C@H]2CN1C(=O)c1ccccc1 here?
A: inactive: -2.17%

Q: CC(=O)N1CCc2cc(S(=O)(=O)CCC(=O)NCc3ccc(C)o3)ccc21 was tested. Which “activity, negative = active” value did it give?
A: inactive: -2.05%

Q: With Cc1ccc(S(=O)(=O)Oc2ccc(/C=C3\C(=N)N4N=C(S(C)(=O)=O)SC4=NC3=O)cc2)cc1 as the molecule, how does the “activity, negative = active” value read?
A: inactive: -0.25%

Q: CC(C)(C)N1C(=O)c2ccc(C(=O)Nc3ccc(O)cc3)cc2C1=O was tested. Which Potency did it give?
A: inconclusive: 35.5 µM [inhibitor, single point]
